Source: the supplement of paper PMC3334620
In all, about 33,000 sequences were measured (“E-score (-0.5 to 0.5)”: median about -0.013, highest 2% from about 0.3 on). The list shows a part of the results.

biological target: T1, Msn1 (UniProt P22148); experiment: PBM E-score (8-mer binding enrichment) (E-score (-0.5 to 0.5)); higher = stronger / more preferred TF binding; most listed sequences are background and not binding sites; conditions: protein concentration: 200 nM; construct: GST-full length
T1 sequence: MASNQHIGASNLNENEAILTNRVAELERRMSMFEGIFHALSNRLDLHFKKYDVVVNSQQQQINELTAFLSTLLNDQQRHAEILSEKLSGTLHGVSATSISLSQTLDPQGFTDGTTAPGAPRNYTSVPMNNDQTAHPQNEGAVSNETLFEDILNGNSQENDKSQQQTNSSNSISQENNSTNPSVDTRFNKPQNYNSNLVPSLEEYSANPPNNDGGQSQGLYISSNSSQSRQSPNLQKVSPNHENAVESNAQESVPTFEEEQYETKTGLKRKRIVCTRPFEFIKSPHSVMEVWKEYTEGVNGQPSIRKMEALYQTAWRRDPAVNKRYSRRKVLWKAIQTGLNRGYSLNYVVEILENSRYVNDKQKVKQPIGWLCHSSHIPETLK
In short: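 Yeast transcription factors, full-length or as DNA-binding domains, were expressed with a GST tag using PURExpress in vitro transcription/translation. At about 100-200 nM they were applied to universal all-10-mer Agilent arrays, double-stranded by primer extension on fresh or once-stripped slides. Fluorescent anti-GST detected bound protein, and masliner normalised the scans. E-scores for ungapped eight-base words, pooled with reverse complements, came from the Universal PBM Analysis Suite.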

| Sequence | PBM E-score |
| --- | --- |
| ACTGGATG | -0.0774 |
| GACCCCAA | -0.0989 |
| AGTTTAAA | 0.153 |
| ATGAGGGA | -0.2 |
| AGATGTTG | 0.0219 |
| ACAGTTAT | 0.052 |
| AGCTAGCA | -0.041 |
| AGGTCGGG | -0.0944 |
| GACGCTCA | 0.0746 |
| GCAGAAGC | -0.164 |
| ACAAAACC | 0.239 |
| GACAGATC | 0.143 |
| CATTTATC | 0.194 |
| AACTCCCT | -0.127 |
| GAGGGTAA | -0.114 |
| ACCTCGGG | 0.0624 |
| ACTCAATG | -0.0638 |
| GTTTTATA | 0.168 |
| ACGATTCT | 0.0879 |
| ACTCCGAG | 0.224 |
| GACGACCC | -0.102 |
| GCATCTAC | -0.0222 |
| CTGCTCTC | -0.137 |
| CGCCGTAC | -0.0838 |
| GCGGGGCA | -0.147 |

| Sequence | PBM E-score |
| --- | --- |
| CAGCTTTC | -0.109 |
| AACAGAAG | -0.0418 |
| CCACAAGC | -0.0513 |
| CAACGCCG | -0.049 |
| ACTCAGTA | 0.0941 |
| GACTCAGC | -0.151 |
| CTACTCAA | 0.113 |
| AAGGCACC | -0.244 |
| CCGTGTAA | 0.00534 |
| ACGTGTCA | 0.254 |
| CTACGCGC | -0.0365 |
| GCGATTGA | -0.0391 |
| TAAGGCCA | -0.0192 |
| GCGGTGAC | 0.114 |
| TCTGCGAA | 0.0822 |
| ACAGTTCT | 0.13 |
| CGAGCAAG | -0.247 |
| ATGTGATC | 0.0746 |
| CGTATAAA | 0.287 |
| GCCTATCA | -0.00401 |
| ATATAGGA | 0.255 |
| GGTCGCAA | -0.11 |
| GCGGGGGA | -0.42 |
| ATCACTTG | 0.107 |
| CCATCACC | -0.214 |

| Sequence | PBM E-score |
| --- | --- |
| ACACTTCC | 0.0144 |
| GACCCAAC | -0.0455 |
| ACCGTGTC | 0.222 |
| CCAAGGCA | -0.0766 |
| GGGTCGAC | -0.0447 |
| CTCCGGCA | 0.142 |
| AATGTCGC | 0.398 |
| CTCCTTTC | -0.214 |
| CAGCGTAC | -0.125 |
| AAGCTTTA | 0.0694 |
| ACTGTAGA | 0.0261 |
| CAGGTCGC | -0.00167 |
| CGGGGTAC | -0.216 |
| ATTTCTCA | 0.211 |
| TCAAATAA | 0.234 |
| ATGGGTTC | -0.107 |
| AGGGTATA | 0.217 |
| CGATTTCA | 0.0548 |
| CAGGACTA | 0.165 |
| CAACTATG | 0.161 |
| CCCTTGAC | -0.185 |
| CTCGTTTA | 0.00364 |
| CGTTTCCA | -0.0212 |
| AAGATCTT | 0.0571 |
| CTCTGCAG | -0.0886 |

| Sequence | PBM E-score |
| --- | --- |
| CGGCGTCA | -0.146 |
| CTTTTTAA | 0.0194 |
| ACAAGCGG | 0.253 |
| ATCATGAC | 0.17 |
| ATGAGAAC | 0.0058 |
| GATGTCAC | 0.26 |
| ACCGTAAT | 0.0252 |
| AATAGACC | -0.0955 |
| CGGAACTC | 0.00812 |
| CCAGCCGA | -0.0639 |
| ACTATCAA | 0.111 |
| AAATCCTG | 0.258 |
| CACCGTAC | -0.00037 |
| TCTAATCA | 0.0873 |
| CATGCTTA | -0.133 |
| AAGCGTCT | -0.0523 |
| CTACGTAG | 0.0272 |
| GGATTTTA | 0.106 |
| TATTATCA | 0.173 |
| CAATGACG | -0.12 |
| AGGCCTTA | -0.113 |
| ATGTAAGC | 0.0574 |
| CCTAAAGA | -0.137 |
| ACGAACAC | 0.067 |
| AGTGGCTA | -0.146 |

| Sequence | PBM E-score |
| --- | --- |
| GAGATTCA | 0.0423 |
| TGGAAACA | -0.0372 |
| GTAATCGA | -0.0358 |
| ACACGTTG | 0.0399 |
| ACATCCCC | -0.06 |
| AGAAACGA | 0.0057 |
| ATGCCCCG | -0.233 |
| CCCCCAAA | -0.139 |
| CCTCTGAG | -0.319 |
| TACCGCAA | 0.127 |
| ACGGTGAG | -0.0715 |
| CCATGGTA | -0.0291 |
| CATCCTGA | -0.0354 |
| GAGATCGC | -0.0355 |
| GACCTGAC | -0.119 |
| ACAGTGAA | 0.122 |
| AGAGGGCG | -0.186 |
| GTAGGAGA | -0.204 |
| CCCAGTAG | -0.136 |
| GGCATAAA | 0.0749 |
| AAAGACAG | 0.193 |
| GAGGCCCA | -0.379 |
| AGCCCCTA | -0.229 |
| TGAACTAA | -0.00251 |
| AATGTACC | 0.311 |

| Sequence | PBM E-score |
| --- | --- |
| CCTACTCA | -0.133 |
| CGTTTCCC | -0.125 |
| CTCGAGAG | -0.0394 |
| GGATAACC | -0.227 |
| AAGTTATC | 0.141 |
| CTCCGTAA | -0.17 |
| CGCACAGA | 0.042 |
| CGCGACAG | -0.00106 |
| CCCATCTC | -0.269 |
| AAGCGGAG | -0.106 |
| GCTAAGAC | 0.101 |
| CTGTATCC | -0.00014 |
| ATAAACGC | -0.0374 |
| CCGTTGGC | -0.117 |
| CAAGCTCG | 0.107 |
| ATACCCTA | 0.0956 |
| CGTTGCAA | 0.109 |
| AATCTCTA | -0.0142 |
| CACCGCCG | -0.207 |
| CAATATGA | 0.0187 |
| AGTAGACC | -0.0365 |
| CTGCCTGC | -0.21 |
| CACCCCTA | -0.238 |
| GCTATAGA | -0.142 |
| CGGACCTC | 0.0121 |

| Sequence | PBM E-score |
| --- | --- |
| CCGGAGTC | -0.161 |
| CGCTTGGC | -0.234 |
| CGAGACTA | 0.21 |
| AGTTTAAC | -0.121 |
| GATGCGGC | -0.0887 |
| GCAGGGGA | -0.349 |
| CGGAACGC | 0.0192 |
| AGCCTGGC | -0.181 |
| GTAGCCCA | -0.121 |
| GGGAGTAA | 0.0327 |
| CTATTCAA | 0.0406 |
| AGGGGTAC | -0.0838 |
| GTGACACA | 0.286 |
| ACCGGGAA | 0.093 |
| AGCACGCG | -0.00682 |
| ACTCATTG | -0.207 |
| AGCTTGGC | 0.0439 |
| AGCTCCGA | 0.117 |
| CGGGCCCG | -0.0103 |
| CCGCTAAG | 0.0391 |
| AGTAGATG | -0.0118 |
| CAGGCCAC | -0.226 |
